In the supplement of paper PMC8728848:
The other results are listed elsewhere or left out.

Key:
Assay in all cases: glycan array binding signal (z-score within array); higher = stronger binding
Conditions in all cases: glycan notation: IUPAC condensed, linker removed
GalNAc(b1-3)GalNAc = molecular target: GalNAc(b1-3)GalNAc
Summary of the method: (§1)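 Negative Z-scores can be read as non-binding. The Z-score is calculated within each array and then averaged across arrays of one protein sequence at different concentrations or buffers and across linkers. Arrays, 3228 in all, were curated from the Consortium for Functional Glycomics database and kept only where the protein sequence was available.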

GalNAc(b1-4)GlcNAc = molecular target: GalNAc(b1-4)GlcNAc
Summary of the method: as §1

Glc(a1-4)Glc = molecular target: Glc(a1-4)Glc
Summary of the method: as §1

Glc(a1-6)Glc(a1-6)Glc = molecular target: Glc(a1-6)Glc(a1-6)Glc
Summary of the method: as §1

Glc(b1-4)Glc = molecular target: Glc(b1-4)Glc
Summary of the method: as §1

Glc(b1-6)Glc = molecular target: Glc(b1-6)Glc
Summary of the method: as §1

GlcA(b1-3)Gal = molecular target: GlcA(b1-3)Gal
Summary of the method: as §1

GlcA(b1-3)GlcNAc = molecular target: GlcA(b1-3)GlcNAc
Summary of the method: as §1

GlcA(b1-6)Gal = molecular target: GlcA(b1-6)Gal
Summary of the method: as §1

[1] = molecular target: GlcNAc(a1-3)Gal(b1-4)GlcNAc
Summary of the method: as §1

[2] = molecular target: GlcNAc(a1-6)Gal(b1-4)GlcNAc
Summary of the method: as §1

[3] = molecular target: GlcNAc(b1-2)Gal(b1-3)GalNAc
Summary of the method: as §1

[4] = molecular target: GlcNAc(b1-2)Man(a1-3)[GlcNAc(b1-2)Man(a1-6)]Man(b1-4)GlcNAc(b1-4)GlcNAc
Summary of the method: as §1

GlcNAc(b1-3)Gal = molecular target: GlcNAc(b1-3)Gal
Summary of the method: as §1

[5] = molecular target: GlcNAc(b1-3)Gal(b1-3)GalNAc
Summary of the method: as §1

GlcNAc(b1-3)Gal(b1-4)Glc = molecular target: GlcNAc(b1-3)Gal(b1-4)Glc
Summary of the method: as §1

[6] = molecular target: GlcNAc(b1-3)Gal(b1-4)GlcNAc
Summary of the method: as §1

[7] = molecular target: GlcNAc(b1-3)Gal(b1-4)GlcNAc(b1-3)Gal(b1-4)GlcNAc
Summary of the method: as §1

GlcNAc(b1-3)GalNAc = molecular target: GlcNAc(b1-3)GalNAc
Summary of the method: as §1

GlcNAc(b1-3)Man = molecular target: GlcNAc(b1-3)Man
Summary of the method: as §1

[8] = molecular target: GlcNAc(b1-3)[GlcNAc(b1-4)][GlcNAc(b1-6)]GlcNAc
Summary of the method: as §1

[9] = molecular target: GlcNAc(b1-3)[GlcNAc(b1-6)]Gal(b1-4)GlcNAc
Summary of the method: as §1

[10] = molecular target: GlcNAc(b1-3)[GlcNAc(b1-6)]GalNAc
Summary of the method: as §1

[11] = molecular target: GlcNAc(b1-4)Gal(b1-4)GlcNAc
Summary of the method: as §1

GlcNAc(b1-4)GlcNAc = molecular target: GlcNAc(b1-4)GlcNAc
Summary of the method: as §1

[12] = molecular target: GlcNAc(b1-4)GlcNAc(b1-4)GlcNAc
Summary of the method: as §1

[13] = molecular target: GlcNAc(b1-4)GlcNAc(b1-4)GlcNAc(b1-4)GlcNAc(b1-4)GlcNAc
Summary of the method: as §1

[14] = molecular target: GlcNAc(b1-4)GlcNAc(b1-4)GlcNAc(b1-4)GlcNAc(b1-4)GlcNAc(b1-4)GlcNAc
Summary of the method: as §1

[15] = molecular target: GlcNAc(b1-4)[GlcNAc(b1-6)]GalNAc
Summary of the method: as §1

[16] = molecular target: GlcNAc(b1-6)Gal(b1-4)GlcNAc
Summary of the method: as §1

GlcNAc(b1-6)GalNAc = molecular target: GlcNAc(b1-6)GalNAc
Summary of the method: as §1

GlcNAc3Prop(b1-4)GlcNAc = molecular target: GlcNAc3Prop(b1-4)GlcNAc
Summary of the method: as §1

Kdn(a2-3)Gal(b1-3)GlcNAc = molecular target: Kdn(a2-3)Gal(b1-3)GlcNAc
Summary of the method: as §1

Kdn(a2-3)Gal(b1-4)GlcNAc = molecular target: Kdn(a2-3)Gal(b1-4)GlcNAc
Summary of the method: as §1

[17] = molecular target: Man(a1-2)Man(a1-2)Man(a1-3)Man
Summary of the method: as §1

[18] = molecular target: Man(a1-2)Man(a1-2)Man(a1-6)[Man(a1-3)]Man
Summary of the method: as §1

Man(a1-2)Man(a1-3)Man = molecular target: Man(a1-2)Man(a1-3)Man
Summary of the method: as §1

[19] = molecular target: Man(a1-2)Man(a1-3)[Man(a1-2)Man(a1-6)]Man
Summary of the method: as §1

[20] = molecular target: Man(a1-2)Man(a1-3)[Man(a1-2)Man(a1-6)]Man(a1-6)[Man(a1-2)Man(a1-2)Man(a1-3)]Man
Summary of the method: as §1

[21] = molecular target: Man(a1-2)Man(a1-3)[Man(a1-2)Man(a1-6)]Man(a1-6)[Man(a1-2)Man(a1-2)Man(a1-3)]Man(b1-4)GlcNAc(b1-4)GlcNAc
Summary of the method: as §1

[22] = molecular target: Man(a1-2)Man(a1-3)[Man(a1-6)]Man(a1-6)[Man(a1-2)Man(a1-3)]Man(b1-4)GlcNAc(b1-4)GlcNAc
Summary of the method: as §1

[23] = molecular target: Man(a1-2)Man(a1-6)[Man(a1-3)]Man(a1-6)[Man(a1-2)Man(a1-2)Man(a1-3)]Man
Summary of the method: as §1

[24] = molecular target: Man(a1-2)Man(a1-6)[Man(a1-3)]Man(a1-6)[Man(a1-2)Man(a1-2)Man(a1-3)]Man(b1-4)GlcNAc(b1-4)GlcNAc
Summary of the method: as §1

Man(a1-3)[Man(a1-6)]Man = molecular target: Man(a1-3)[Man(a1-6)]Man
Summary of the method: as §1

[25] = molecular target: Man(a1-3)[Man(a1-6)]Man(a1-6)[Man(a1-2)Man(a1-3)]Man(b1-4)GlcNAc(b1-4)GlcNAc
Summary of the method: as §1

B1: SLR2P3F12 (Tachypleus tridentatus), TAL2_TACTR (protein)
chain: MEKGTPPTHDSDNWMGRAKKIGNGGWNQFQFLFFDPNGYLYAVSKDKLYKASPPQSDTDNWIARATEIGSGGWSGFKSLFFHPNGYLYAVHGQRLYKALPPVSNQD
glycan array binding signal (z-score) (GalNAc(b1-3)GalNAc): -0.148 | glycan array binding signal (z-score) (GalNAc(b1-4)GlcNAc): -0.615 | glycan array binding signal (z-score) (Glc(a1-4)Glc): 0.228 | glycan array binding signal (z-score) (Glc(a1-6)Glc(a1-6)Glc): -0.231 | glycan array binding signal (z-score) (Glc(b1-4)Glc): -0.402 | glycan array binding signal (z-score) (Glc(b1-6)Glc): 0.131 | glycan array binding signal (z-score) (GlcA(b1-3)Gal): 0.008 | glycan array binding signal (z-score) (GlcA(b1-3)GlcNAc): -0.047 | glycan array binding signal (z-score) (GlcA(b1-6)Gal): -0.074 | glycan array binding signal (z-score) [1]: 5.11 | glycan array binding signal (z-score) [2]: 13.2 | glycan array binding signal (z-score) [3]: -0.411 | glycan array binding signal (z-score) [4]: -0.032 | glycan array binding signal (z-score) (GlcNAc(b1-3)Gal): -0.413 | glycan array binding signal (z-score) [5]: -0.325 | glycan array binding signal (z-score) (GlcNAc(b1-3)Gal(b1-4)Glc): -0.166 | glycan array binding signal (z-score) [6]: -0.194 | glycan array binding signal (z-score) [7]: -0.426 | glycan array binding signal (z-score) (GlcNAc(b1-3)GalNAc): -0.359 | glycan array binding signal (z-score) (GlcNAc(b1-3)Man): 0.492 | glycan array binding signal (z-score) [8]: -0.469 | glycan array binding signal (z-score) [9]: -0.471 | glycan array binding signal (z-score) [10]: 0.799 | glycan array binding signal (z-score) [11]: -0.49 | glycan array binding signal (z-score) (GlcNAc(b1-4)GlcNAc): -0.225 | glycan array binding signal (z-score) [12]: -0.41 | glycan array binding signal (z-score) [13]: -0.445 | glycan array binding signal (z-score) [14]: 0.038 | glycan array binding signal (z-score) [15]: -0.186 | glycan array binding signal (z-score) [16]: -0.334 | glycan array binding signal (z-score) (GlcNAc(b1-6)GalNAc): -0.424 | glycan array binding signal (z-score) (GlcNAc3Prop(b1-4)GlcNAc): -0.433 | glycan array binding signal (z-score) (Kdn(a2-3)Gal(b1-3)GlcNAc): -0.011 | glycan array binding signal (z-score) (Kdn(a2-3)Gal(b1-4)GlcNAc): -0.446 | glycan array binding signal (z-score) [17]: -0.489 | glycan array binding signal (z-score) [18]: -0.021 | glycan array binding signal (z-score) (Man(a1-2)Man(a1-3)Man): -0.434 | glycan array binding signal (z-score) [19]: -0.388 | glycan array binding signal (z-score) [20]: -0.234 | glycan array binding signal (z-score) [21]: 0.798 | glycan array binding signal (z-score) [22]: -0.302 | glycan array binding signal (z-score) [23]: -0.273 | glycan array binding signal (z-score) [24]: 0.04 | glycan array binding signal (z-score) (Man(a1-3)[Man(a1-6)]Man): 0.42 | glycan array binding signal (z-score) [25]: 0.637
